Data as given in the supplement of paper PMC12632987.
Over roughly 2,300 sequences, “median log2 fold change of GCK-ALFA target abundance (FLAG IP / Myc IP barcode read proportion)” has its median near 0.095; the lowest 2% begin near -0.47. The list shows a part of the results.

B1: LC3A_28_670 (protein)
chain: MELKEELEKKLAEAKKAAAKGEPTVFVLKVPGDATEEDIEYFIEKLEEIAELLKDVKGSAIIVDLSGDLSEEHRNKIIDRAEEINEKYPNVTVIIALEDR
B2: LC3A_3_1438 (protein)
chain: MEKLIKEAEEVLKKIGASEEAREAVLKLVRLALEAGEEELVEELIKVLKKAKNVPSEELLEAAEEALRLIEEEGVSVEEVMKRFIEEIRLLELEKEIEEL
B3: LC3A_28_1092 (protein)
chain: SALDASLEAALAETREAAARGEEVLVTITVDGSATEEDLERLKAALREIAEIAAGLPRLTVVVDLDGEKQREKADIIGAFADELEAEYPNLTVIIALDEE
B4: LC3A_28_1032 (protein)
chain: AALEESARAALAEAEAQLAAGEEAVVTLDVGDVDTETAKAVVAAFLAALRALSARHGGAKITVVINYDGDQETLDAIIDVADAAEAADPNLTVIIAYPDK
B5: LC3A_3_1671 (protein)
chain: MEELIEKLIELLKEKGASEEELEELLEAIEELKEVSSEEVVKTLIEEMLKAKDVPVEIMIEMVKDIVEKIKKENLSEEEQIELVKSEVAAARAEAEIEEL
B6: LC3A_3_1680 (protein)
chain: MEEKVKEVLKKLKENGFDEETIKAAKKLLEALKKKGYEKAIEELLKELEKLKDVPSEKVKDMFEDILRYVEEENPSEEEIVKLIREEAKTLLNDLEIEEL
B7: LC3A_3_1395 (protein)
chain: FEEIRKETIEYLKKAGKSEEVIKAAEEALELLEKRGYLEAAKTFLEELKKMKDVSDELLLWFLNEVINYLKTNDDDEETVIKKIKEFATIVKNESEIEEL
B8: LC3A_free_8_2456 (protein)
chain: SSQKLVDTAVKLLEEMEKELTELAKKEGLSRLDILELELEIGSLIAEVISLVDKSPEEILETTKEGLEEIIELAKELGEEVAKLAEEKSKEIIEELEKLI
B9: LC3A_45_2000 (protein)
chain: MWEITIDLLGPREKVEKAVELILEVVEEFSKETGIKIEVDEELIEASIEASKDEEEVFARIVIKIDGDEAHANELVQRLDEVLEEVGPGLSAIISVEKIE
B10: LC3A_28_1117 (protein)
chain: SVAEKILEEFKKQVEAAIESGEETVIEVKIPGTLSDEEVEELANEVAERAGEAAKKRPVSIVIDVDKDVSQESIDIIADKAEELEKAYPNVNVIIALEER
B11: LC3A_3_1684 (protein)
chain: MEEEVKKVLEEAKKNGWSEETLEALKELLELLKERGYLEAIKTILEEIKALADASSEDWKWMFEELLHKLKTEDLSEEEVVELIKEEAAVIRNAAEIEEL
B12: LC3A_127_215 (protein)
chain: ELEKLIEELLKILEEIQEELDKEDYDLEKIEKLLEEGIKVAKEALKLDPRFKEVLEDLEEALKLVKEMKNLDEAEQEEARERISMLIDGAIISVESLLLK
B13: LC3A_147_425 (protein)
chain: YKVVVEAYFLVKKDGTEALKAIEELAEELKKKGADKVEIEREEDEEDGTILVTVTLEATKETLEEAQAFADEVIDRFEELEEKYKDTLKLVAISVEITEA
B14: LC3A_3_1543 (protein)
chain: LEEELEELLRELRAAGASEETLEAVRRAFEALRERGYEEAARTFIEEMRRLLDAPSELLLEFAEEVLELVETSDLDEESLVREIREIARTIRSESEIIEL
B15: LC3A_free_46_2351 (protein)
chain: VKAEIEIDLLADDKETLEKAVKEIKEKIKEIAEKYGLELEIESEISKLEDGSYFARIKITLKGEKLEDVKKAVNELINEIEKIAEKYNVSAVISYEIIDE
B16: LC3A_23_609 (protein)
chain: MYLIDFEVDLIGEPEEIEKIEKELLEALEEFLEENKDKIVDYEIEVEREELEDGRTYLSIRLKILIDGTREEAEALANEITTIASEIAPDAVISVEVEEV
B17: LC3A_3_1828 (protein)
chain: LEEEKEELIKALKEAGHSEETIEAVKRTLEALLEKGYEEAAREFIELLKENLDLPSELLKELAEEVLELVETEDLSEEELTEKIRELTRLFVNESEIEEL
B18: LC3A_3_1364 (protein)
chain: AEALIEETLAFLRAQGKSEETIAAVRAALEALREAGYLEALEVFAELLREMADLPDELLLAFAEDVLAAVEAGELSEEELIEFIKSEAAVIRSEAEIEEL
B19: LC3A_147_392 (protein)
chain: WVVEVDIDILTKDAEEEVIAAFKALAEELKAEGFEVELEIETEQLDPDTTYIEVRITIKAPTREQAEAAAQRVLDKIDALEEKLKDKILGSIVSVEISEA
B20: LC3A_62_2053 (protein)
chain: KYKLEIEIDVLTESEEDAKEYAEALKEAVEKIKKEFPDVEFEVKVEVEGNYVTVTIKAIADTKEKIEEVKNALLDAIDEIEEKMKDKIKASIISYEISKL
B21: LC3A_3_1771 (protein)
chain: MEERLAAARARLEAAGFSPEVIERALAAIRAALEKGWERVADLILDLMLEMRDLPEIDKLTAAELALEIIEESETSEEELLKKVEDTMRNVAGIEALEEE
B22: LC3A_28_1028 (protein)
chain: SALRENAEKALAEAEAAFERGEEAVVTLRVPDIPKEEAVALVRDTLERLIALSKAHGGVKISVVIEHDGDQETADAIADVAEAAEAANPNLTVILALSEE
B23: LC3A_45_1973 (protein)
chain: MAKVTVDLLVPREKAEKAVEIIKKAAEELEKKSGGKLKFDYETLEESYEETKDEEEVYLRLVIYAPDEQLALDAAVEIVDRLEEELGMPVAAIISSEEEP
B24: LC3A_132_314 (protein)
chain: MEEEYKEIEKELEKLLKEIEKNIDDKEKVEKLLKELEKKLKEAEKKLTPEQVAELALKVADGLDEISRKALEAGKEDVALLLDAASVEAFSRSLRAEKKI
B25: LC3A_23_617 (protein)
chain: MYRVEVEAYAIVPREEAEATVERIRAAIEAILEKNKDKIKEYRIEVELEELEDGSVLITVRVTIVVDGDEETAKEIADEIEDALEAIAPNVVISREIEKL
B26: LC3A_free_8_2507 (protein)
chain: SKEEAIQKVLEALKEMEEKLRKKAEELGASRLDILELELLVGSVIAEVISLSDDSLEKIKEGLKEGLEEVIKAAKEISEELAKLAKEGAEKILKLLEEVE
B27: LC3A_free_46_2309 (protein)
chain: VRAEILIDLLHDDEEVLKEAVEEIVEAIREIAEKYGLEVEIEVSFSKDPDGSYFAEIKVTLKGETKEKVQAAVDEIIERIDEIAEKYDVSYIISVEIEEE
B28: LC3A_28_900 (protein)
chain: GAALESARAALAEVQAAVAAGDTSPLVVEVKAPAEEEDAERFLELLEELAEVASQRPGVTIVVDVSEEVSQENIDRIIDTAERIEAKYPNVTVIIALPED
B29: LC3A_59_2015 (protein)
chain: SAELEAAIAAIKANVDDLEKLAKTLAEALEKFKDDPEAVDALIDAAAEALSKKYGISDEDMEELKAEIRKAFEELKDKEELEKKILELLKDYVNLIPIEE

What follows are binders tested against MAP1LC3A, Q9H492 (assay: median log2 fold change of GCK-ALFA target abundance (FLAG IP / Myc IP barcode read proportion) (log2 ratio); each designed protein is fused to an ALFA-tag nanobody in HEK293 cells to bring the named protein to FLAG-tagged glucokinase (GCK); Myc marks an untargeted standard; higher = target protein stabilised (more abundant)). Details: target protein: 3xFLAG-MCP-GCK-ALFA reporter; HEK293 landing pad (RPLP).
Procedure, shortened: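 Sequencing of reverse-transcribed, amplified circular RNA barcodes from anti-FLAG and anti-Myc immunoprecipitates provided the readout for an ALFA-nanobody-fused binder library recombined into HEK293 landing-pad cells. Those cells were induced with 2 μg mL^−1 doxycycline, transfected with a plasmid expressing a FLAG-tagged target and a Myc-tagged standard, and lysed after 48 h. Target abundance is the per-binder median log2 ratio of FLAG to Myc barcode read proportions. Only barcodes at a proportion of ≥10^−7 in both replicates and binders with ≥3 barcodes per replicate were kept, with a 10^−6 pseudocount added before the two replicates were pooled.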

Row | Binder | median log2 fold change
1 | B1 | -0.137
2 | B2 | 0.216
3 | B3 | 0.0777
4 | B4 | -0.2
5 | B5 | 0.32
6 | B6 | 0.337
7 | B7 | 0.436
8 | B8 | -0.163
9 | B9 | -0.0651
10 | B10 | -0.0935
11 | B11 | 0.284
12 | B12 | 0.125
13 | B13 | 0.147
14 | B14 | 0.179
15 | B15 | 0.106
16 | B16 | -0.664
17 | B17 | 0.152
18 | B18 | 0.0587
19 | B19 | 0.0656
20 | B20 | -0.0812
21 | B21 | 0.121
22 | B22 | 0.233
23 | B23 | 0.184
24 | B24 | 0.189
25 | B25 | -0.151
26 | B26 | 0.196
27 | B27 | -0.0343
28 | B28 | -0.235
29 | B29 | 0.36
